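Each compound was tested at five concentrations against cells in 96-well plates for 48 hours. GI50 is the concentration that inhibits growth by half. TGI marks complete inhibition of growth.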
System: NCI-H322M lung
Assay: DTP human tumour cell line panel, 48 h

| SMILES | TGI | GI50 |
| --- | --- | --- |
| NC(CCC(=O)O)C(=O)NC(Cc1ccc(N(CCCl)CCCl)cc1)C(=O)O (centres undefined) | > 100 µM | – |
| O=C(CC1(O)C(=O)Nc2c(Cl)ccc(Cl)c21)c1ccc(Cl)cc1 (centres undefined) | > 100 µM | – |
| O=C(O)CCC(NC(=O)c1ccc(Nc2nc3ccc(C(F)(F)F)cc3nc2C(=O)O)cc1)C(=O)O (centres undefined) | > 100 µM | – |
| CCCN1C(=O)CN(S(=O)(=O)c2ccc(Cl)cc2)C1=O | > 100 µM | – |
| Clc1ccc(C(OCn2ccnc2)c2nc3ccccc3[nH]2)c(Cl)c1 (centres undefined) | > 100 µM | – |
| N/C(CCSCCSCC/C(N)=N\O)=N\O | > 100 µM | – |
| CC1C(OS(=O)(=O)c2ccc3[nH]c(=S)sc3c2)CC2C3(C)CCC2(C(C)C(=O)O)C(O)C13 (centres undefined) | > 100 µM | – |
| C=C(C)c1nc(Oc2ccccc2)nc(Oc2ccccc2)n1 | 31.2 µM | – |
| CC(C)c1ccc2c(c1)CCC1C2CCCC1(C)NCc1ccccc1 (centres undefined) | 12.4 µM | 3.66 µM |
| O=C(OC1OC2COC(=O)c3cc(O)c(O)c(O)c3-c3c(cc(O)c(O)c3O)C(=O)OC3C2OC(=O)[C@@]24CC(=O)[C@@](O)(OC25C(=O)O[C@H]2[C@@H](O)CO[C@@]25O)C2(O)Oc5c(O)c(O)cc(c5C24)C(=O)OC13)c1cc(O)c(O)c(O)c1 (some centres undefined) | > 100 µM | – |
| Cc1cn([C@H]2C[C@@H](N3C(=O)c4ccccc4C3=O)[C@@H](CO[Si](C)(C)C(C)(C)C)O2)c(=O)[nH]c1=O | > 100 µM | – |
| COC(=O)C(C)NP(=O)(OCc1cccc(Cn2cnc3c(N)ncnc32)c1)Oc1ccccc1 (centres undefined) | > 100 µM | > 100 µM |
| C/C(=C\c1ccccc1)C(O)C(=O)c1nc2ccc(Cl)cc2[nH]c1=O (centres undefined) | > 100 µM | – |
| CC(=O)O[C@H]([C@H](OC(C)=O)[C@H](C)OC(C)=O)[C@@H](/C=C/[C@H]1CC=CC(=O)O1)OC(C)=O | > 100 µM | > 100 µM |
| CCOC(=O)c1c(Cl)c2c(n1Cc1ccccc1)-c1oncc1CCC2 | > 100 µM | > 100 µM |
| CCOC(=O)c1nc2ccc(C(F)(F)F)cc2nc1Oc1ccc(OC)cc1 | > 100 µM | – |
| COc1ccc([C@@H]2[C@@H](Oc3ccccc3)C(=O)N2c2cc(OC)c(OC)c(OC)c2)cc1F | > 100 µM | 0.721 µM |
| CN(/N=C/c1ccccn1)C1=NCCN1 | > 100 µM | – |
| O=C(NC1CCCCC1)c1n[nH]nc1Cl | > 100 µM | – |
| CCOC(=O)C1C(NC(N)=O)N(Cc2ccccc2)C(=O)N1Cc1ccccc1 (centres undefined) | > 100 µM | – |
| COC(=O)c1ccc(CCC2=CC(=O)C=CC2=O)cc1 | 93.9 µM | – |
| N#C[Se]CCN1C(=O)c2ccccc2C1=O | 6.05 µM | 2.07 µM |
| CC(=O)n1c2ccc(Br)cc2c2nc3ccccc3nc21 | > 100 µM | – |

| SMILES | TGI | GI50 |
| --- | --- | --- |
| OC[C@H]1C[C@](O)(c2ccc(F)cc2)[C@@H](c2ccc(F)cc2)O1 | > 100 µM | > 100 µM |
| C/C(=C\c1csc(C)n1)[C@@H]1C[C@@H]2O[C@]2(C)CCC[C@H](C)[C@H](O)[C@@H](C)C(=O)C(C)(C)[C@@H](O)CC(=O)N1 | 0.000521 µM | 0.000312 µM |
| COc1cc(NC(=O)COc2ccccc2)c(C(N)=O)cc1OC | > 100 µM | 5.77 µM |
| COc1ccc(-n2c(=O)c3ccccc3n(Cc3ccc(C(=O)NO)cc3)c2=O)cc1 | > 100 µM | 3.17 µM |
| ON1CCc2c([nH]c3ccccc23)C1c1ccc(Cl)cc1 (centres undefined) | > 100 µM | – |
| CC1(C)CC2=NO[Se]3=C2C(=NO3)C1 | 8.77 µM | – |
| NS(=O)(=O)c1cc2c(cc1Cl)NCNS2(=O)=O | > 100 µM | – |
| CC(=O)Nc1nc2c(=O)c3ccccc3sc2s1 | > 100 µM | – |
| CC(C)(C)n1c(=O)n2c(-c3ccccc3)c(-c3ccccc3)n2c1=O | > 100 µM | – |
| O=C1NC(=O)N(S(=O)(=O)c2cc(C(=O)Nc3ccc(Cl)cc3)c(Cl)cc2S)S(=O)(=O)N1 | 48.5 µM | 22.1 µM |
| CC(=O)O[C@H]1C[C@@H]2[C@@]3(C)CC[C@H]4C[C@@]4(C)[C@@H]3CC[C@@]2(C)C2=CCC3=C(COC3=O)[C@]21C | 35.7 µM | 15.2 µM |
| O=C(CC1(O)C(=O)Nc2c(Cl)cc(Cl)cc21)c1cccc([N+](=O)[O-])c1 (centres undefined) | > 100 µM | – |
| CC(=O)Nc1ccc2c(c1)C(=O)c1ccccc1-2 | > 100 µM | – |
| CC(=O)NC(CCCNC(=O)OCc1ccccc1)C(=O)NCc1ccccc1 (centres undefined) | > 100 µM | – |
| COc1ccc(/C=C2\C[C@H]3[C@@H]4CC=C5C[C@@H](O)CC[C@]5(C)[C@H]4CC[C@]3(C)\C2=N\O)cc1 | > 100 µM | – |
| COc1ccc(OC)c(/C=C2/C(=O)N=C(NC(C)=O)N2C)c1 | > 100 µM | – |
| NCCc1ccc(S(=O)(=O)O)cc1[N+](=O)[O-] | > 100 µM | – |
| N#Cc1c(CC(=O)O)cc(=O)n2c1[nH]c1ccccc12 | > 100 µM | – |
| NCCCCNOCCCN | > 100 µM | – |
| O=S1(=O)C(=C(c2ccccc2)c2ccccc2)S(=O)(=O)c2ccccc21 | > 100 µM | – |
| C(=C\c1cc[n+](CCc2ccccc2)cc1)/c1ccccc1 | 58.5 µM | – |
| CC[C@]12C=CCN3CC[C@@]4(c5ccc(OC)cc5N(C)[C@H]4[C@@](O)(C(=O)OC)[C@@H]1OC(=O)CCCN1CCN(CCCC(=O)O[C@@H]4[C@]5(CC)C=CCN6CC[C@@]7(c8ccc(OC)cc8N(C)[C@H]7[C@@]4(O)C(=O)OC)[C@@H]65)CC1)[C@@H]32 | 3.05 µM | 1.51 µM |
| Nc1nccc(NCC2(CO)CC(CCc3ccccc3)C2)n1 (centres undefined) | 55.5 µM | – |

Source: PubChem BioAssay (NCI)
